Experimental data as given in patent US20040209363A1 (published 2004).

Biological target: human 4-1BB (CD137) on human T cells (human, UniProt Q07011 24-255)
Test: cell-based or functional assay

Sequence of UniProt Q07011 (Q07011 24-255): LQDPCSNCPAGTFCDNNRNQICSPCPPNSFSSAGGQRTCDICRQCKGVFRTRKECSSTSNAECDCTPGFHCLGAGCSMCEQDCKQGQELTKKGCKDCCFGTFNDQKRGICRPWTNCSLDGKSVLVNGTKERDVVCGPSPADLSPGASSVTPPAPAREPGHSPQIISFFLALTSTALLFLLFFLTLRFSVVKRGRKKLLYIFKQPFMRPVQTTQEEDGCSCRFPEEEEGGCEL

B1: human 4-1BB ligand (full length), expressed on transfected P815 cells (ligand)
chain: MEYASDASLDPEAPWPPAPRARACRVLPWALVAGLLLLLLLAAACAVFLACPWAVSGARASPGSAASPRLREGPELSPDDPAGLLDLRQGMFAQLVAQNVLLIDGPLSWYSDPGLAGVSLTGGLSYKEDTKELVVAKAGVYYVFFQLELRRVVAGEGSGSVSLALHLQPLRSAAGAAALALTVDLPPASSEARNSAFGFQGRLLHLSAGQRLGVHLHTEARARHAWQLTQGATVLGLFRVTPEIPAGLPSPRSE
expansion of CD4 and CD8 T cell populations in total T cell cultures stimulated with P815-4-1BBL plus OKT3 (viable cell count, 5 days): ~2 fold
expansion of sorted CD28+ and CD28- T cells (viable cell count after 5 or 6 days): 2 fold
